In PubChem BioAssay AID588591 (National Center for Advancing Translational Sciences (NCATS), 2011):
About 4,700 (1.2%) of roughly 390,000 compounds were called active. The inconclusive results got no clear call from the source; some entries with a clear call stand among them for comparison. Calls follow the shape of the dose curve; as a rule, active = well fitted inhibition curve with a large enough effect; inconclusive = small, poorly fitted or top-dose-only effect, or another doubt; inactive = no such curve, though single readings can be large or run the other way. A potency beside an inconclusive call is a rough fit, not a confirmed value.
Potency is read from the fitted curve at half-maximal effect; tags tell the direction and shape of the fitted curve.

These molecules were tested against DNA polymerase eta (Homo sapiens) (UniProt Q9Y253) (assay: qHTS for Inhibitors of Polymerase Eta). Conditions: recombinant Pol eta, fluorescent DNA replication assay; series mostly up to 114 µM.
Chain of UniProt Q9Y253 (Q9Y253 whole entry, looked up): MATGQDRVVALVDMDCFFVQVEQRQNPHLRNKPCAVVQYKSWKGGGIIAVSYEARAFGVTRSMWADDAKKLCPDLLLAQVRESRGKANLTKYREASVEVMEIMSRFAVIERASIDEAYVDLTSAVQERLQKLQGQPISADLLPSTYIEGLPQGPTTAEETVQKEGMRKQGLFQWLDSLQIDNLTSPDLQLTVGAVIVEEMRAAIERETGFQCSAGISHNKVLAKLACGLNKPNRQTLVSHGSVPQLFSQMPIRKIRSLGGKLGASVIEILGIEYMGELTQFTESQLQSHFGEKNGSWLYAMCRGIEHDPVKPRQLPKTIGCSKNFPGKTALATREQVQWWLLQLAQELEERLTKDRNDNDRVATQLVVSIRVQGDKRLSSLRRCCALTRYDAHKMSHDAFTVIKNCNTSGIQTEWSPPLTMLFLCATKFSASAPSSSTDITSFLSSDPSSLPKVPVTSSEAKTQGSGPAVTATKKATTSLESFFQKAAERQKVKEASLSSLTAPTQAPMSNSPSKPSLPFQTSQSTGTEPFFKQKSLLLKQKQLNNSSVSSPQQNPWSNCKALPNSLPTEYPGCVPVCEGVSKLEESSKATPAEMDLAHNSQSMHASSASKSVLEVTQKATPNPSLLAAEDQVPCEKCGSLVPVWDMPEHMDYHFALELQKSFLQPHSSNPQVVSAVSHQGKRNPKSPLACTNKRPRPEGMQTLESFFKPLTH
Procedure, shortened: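 Pol eta (10 nM) was preincubated with compounds for 15 min at room temperature, after which fluorescent replication substrate (50 nM final) was added to start the reaction. Fluorescence was read kinetically at 0 and 10 min.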
CCOc1ccc(C(=O)NC(=S)Nc2ccc(NC(=O)c3ccco3)cc2)cc1[N+](=O)[O-] was tested, and the Potency was inconclusive: 6.31 µM [inhibitor, partial curve].
With O=C(NCc1ccco1)c1ccc(Cl)c(S(=O)(=O)N2CCCC2)c1 the Potency was inconclusive: 50.1 µM [inhibitor, partial curve].
With O=C(N/N=C/c1ccc2c(c1)OCO2)c1ccc(Br)o1 the Potency was inconclusive: 39.8 µM [inhibitor, single point].
For CCOc1ccc(N2CC(c3nc4ccccc4n3CCCCOc3ccc(OC)cc3)CC2=O)cc1 (centres undefined), the Potency was inconclusive: 79.4 µM [inhibitor, partial curve, poor fit].
In the case of O=C(O)CSc1cc(C(=O)c2ccccc2O)cn2c(=O)c3c(-c4ccccc4)csc3nc12, the Potency is reported as active: 14.1 µM.
O=C(NCc1cccnc1)c1ccc(COc2cccc3ccccc23)o1 was tested, and the Potency was inconclusive: 15.8 µM [inhibitor, full curve, poor fit].
COc1cc(CCc2ccccc2)c(C(=O)O)c(O)c1C/C=C(/C)CCC=C(C)C was tested, and the Potency was active: 31.6 µM.
In the case of CC(=O)Nc1ccc2nc(SCC(=O)O)sc2c1, the Potency is reported as inconclusive: 31.6 µM [inhibitor, partial curve, poor fit].
For Cc1cc(/C=C2\C(=N)N3N=C(c4ccco4)SC3=NC2=O)c(C)n1Cc1ccccc1, the Potency was active: 22.4 µM.
For Cc1oc(C(=O)O)cc1COc1ccc2c(C)cc(=O)oc2c1, the Potency was active: 22.4 µM.
For COc1cc2c(cc1OC)C(c1ccc(-c3cc(Cl)ccc3Cl)o1)=NCC2, the Potency was inconclusive: 14.1 µM [inhibitor, partial curve, poor fit].
CS(=O)(=O)c1ccc(Sc2nc3ccccc3s2)c([N+](=O)[O-])c1 was tested, and the Potency was inconclusive: 31.6 µM [inhibitor, partial curve, poor fit].
In the case of O=C(C1CCN(c2nnc(N3CCCC3=O)s2)CC1)N1CCN(Cc2ccc3c(c2)OCO3)CC1, the Potency is reported as inconclusive: 28.2 µM [inhibitor, partial curve].
Oc1cccc(/C=N/N=C/c2cccc(O)c2O)c1O was tested, and the Potency was active: 2.82 µM.
In the case of NC(=S)Cc1nc(-c2ccc(Cl)cc2)cs1, the Potency is reported as “inactive”.
For CCOC(=O)N1CC(C)N(C(=S)Nc2ccccc2)CC1C (centres undefined), the Potency was inconclusive: 100 µM [inhibitor, single point].
With CCNC(=O)OCCC12CC3CC(CC(C3)C1)C2 the Potency was “inactive”.
With S=c1[nH]nc(COc2ccccc2)n1/N=C/C=C/c1ccco1 the Potency was active: 28.2 µM.
For COC(=O)CN1C(=O)[C@H]2[C@@H](c3ccc(C)o3)N3C(=O)CN(Cc4ccccc4)C(=O)[C@@]3(Cc3ccccc3)[C@H]2C1=O, the Potency was inconclusive: 89.1 µM [inhibitor, partial curve, poor fit].
